# According to the supplement of paper PMC8728848:
# This is one part of the list.
# Tests used:
# Assay in all cases: glycan array binding signal (z-score within array); higher = stronger binding
# Conditions in all cases: glycan notation: IUPAC condensed, linker removed
# [1] = molecular target: Gal(b1-3)GlcNAc(b1-6)[Gal(b1-3)]GalNAc
# Outline: (§1)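 Arrays were curated from the Consortium for Functional Glycomics database, 3228 in total, and kept only where the protein sequence was available. Binding is expressed as a within-array Z-score. This score was averaged across arrays of the same protein sequence at different concentrations or buffers and across linkers, and negative values can be read as non-binding.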
# [2] = molecular target: Gal(b1-3)GlcNAc6S
# Outline: as §1
# [3] = molecular target: Gal(b1-3)[Fuc(a1-4)]GlcNAc
# Outline: as §1
# [4] = molecular target: Gal(b1-3)[Fuc(a1-4)]GlcNAc(b1-2)Man
# Outline: as §1
# [5] = molecular target: Gal(b1-3)[Fuc(a1-4)]GlcNAc(b1-2)Man(a1-3)[Gal(b1-3)[Fuc(a1-4)]GlcNAc(b1-2)Man(a1-6)]Man(b1-4)GlcNAc(b1-4)[Fuc(a1-6)]GlcNAc
# Outline: as §1
# [6] = molecular target: Gal(b1-3)[Fuc(a1-4)]GlcNAc(b1-3)Gal(b1-3)[Fuc(a1-4)]GlcNAc
# Outline: as §1
# [7] = molecular target: Gal(b1-3)[Fuc(a1-4)]GlcNAc(b1-3)Gal(b1-4)[Fuc(a1-3)]GlcNAc
# Outline: as §1
# [8] = molecular target: Gal(b1-3)[Fuc(a1-4)]GlcNAc(b1-6)GalNAc
# Outline: as §1
# [9] = molecular target: Gal(b1-3)[GlcNAc(b1-6)]GalNAc
# Outline: as §1
# [10] = molecular target: Gal(b1-3)[Neu5Ac(a2-6)]GalNAc
# Outline: as §1
# [11] = molecular target: Gal(b1-3)[Neu5Ac(a2-6)]GlcNAc(b1-4)Gal(b1-4)Glc
# Outline: as §1
# [12] = molecular target: Gal(b1-3)[Neu5Ac(b2-6)]GalNAc
# Outline: as §1
# [13] = molecular target: Gal(b1-4)Gal
# Outline: as §1
# [14] = molecular target: Gal(b1-4)GalNAc(a1-3)[Fuc(a1-2)]Gal(b1-4)GlcNAc
# Outline: as §1
# [15] = molecular target: Gal(b1-4)GalNAc(b1-3)[Fuc(a1-2)]Gal(b1-4)GlcNAc
# Outline: as §1
# [16] = molecular target: Gal(b1-4)Glc
# Outline: as §1
# [17] = molecular target: Gal(b1-4)Glc6S
# Outline: as §1
# [18] = molecular target: Gal(b1-4)GlcNAc
# Outline: as §1
# [19] = molecular target: Gal(b1-4)GlcNAc(a1-6)Gal(b1-4)GlcNAc
# Outline: as §1
# [20] = molecular target: Gal(b1-4)GlcNAc(b1-2)Man
# Outline: as §1
# [21] = molecular target: Gal(b1-4)GlcNAc(b1-2)Man(a1-3)Man(b1-4)GlcNAc(b1-4)GlcNAc
# Outline: as §1
# [22] = molecular target: Gal(b1-4)GlcNAc(b1-2)Man(a1-3)[Gal(b1-4)GlcNAc(b1-2)Man(a1-6)]Man(b1-4)GlcNAc(b1-4)GlcNAc
# Outline: as §1
# [23] = molecular target: Gal(b1-4)GlcNAc(b1-2)Man(a1-3)[Gal(b1-4)GlcNAc(b1-2)Man(a1-6)]Man(b1-4)GlcNAc(b1-4)[Fuc(a1-6)]GlcNAc
# Outline: as §1
# [24] = molecular target: Gal(b1-4)GlcNAc(b1-2)Man(a1-3)[Gal(b1-4)GlcNAc(b1-2)Man(a1-6)][Gal(b1-4)GlcNAc(b1-4)]Man(b1-4)GlcNAc(b1-4)[Fuc(a1-6)]GlcNAc
# Outline: as §1
# [25] = molecular target: Gal(b1-4)GlcNAc(b1-2)Man(a1-3)[Gal(b1-4)GlcNAc(b1-2)Man(a1-6)][GlcNAc(b1-4)]Man(b1-4)GlcNAc(b1-4)[Fuc(a1-6)]GlcNAc
# Outline: as §1
# [26] = molecular target: Gal(b1-4)GlcNAc(b1-2)Man(a1-3)[GlcNAc(b1-2)Man(a1-6)]Man(b1-4)GlcNAc(b1-4)GlcNAc
# Outline: as §1
# [27] = molecular target: Gal(b1-4)GlcNAc(b1-2)Man(a1-3)[GlcNAc(b1-4)][Gal(b1-4)GlcNAc(b1-2)Man(a1-6)]Man(b1-4)GlcNAc(b1-4)GlcNAc
# Outline: as §1
# [28] = molecular target: Gal(b1-4)GlcNAc(b1-2)Man(a1-3)[Man(a1-6)]Man(b1-4)GlcNAc(b1-4)GlcNAc
# Outline: as §1
# [29] = molecular target: Gal(b1-4)GlcNAc(b1-2)Man(a1-6)Man(b1-4)GlcNAc(b1-4)GlcNAc
# Outline: as §1
# [30] = molecular target: Gal(b1-4)GlcNAc(b1-2)Man(a1-6)[GlcNAc(b1-2)Man(a1-3)]Man(b1-4)GlcNAc(b1-4)GlcNAc
# Outline: as §1
# [31] = molecular target: Gal(b1-4)GlcNAc(b1-2)Man(a1-6)[Man(a1-3)]Man(b1-4)GlcNAc(b1-4)GlcNAc
# Outline: as §1
# [32] = molecular target: Gal(b1-4)GlcNAc(b1-2)[Gal(b1-4)GlcNAc(b1-4)]Man(a1-3)[Gal(b1-4)GlcNAc(b1-2)Man(a1-6)]Man(b1-4)GlcNAc(b1-4)GlcNAc
# Outline: as §1
# [33] = molecular target: Gal(b1-4)GlcNAc(b1-2)[Gal(b1-4)GlcNAc(b1-4)]Man(a1-3)[Gal(b1-4)GlcNAc(b1-2)[Gal(b1-4)GlcNAc(b1-6)]Man(a1-6)]Man(b1-4)GlcNAc(b1-4)GlcNAc
# Outline: as §1
# [34] = molecular target: Gal(b1-4)GlcNAc(b1-2)[Gal(b1-4)GlcNAc(b1-4)]Man(a1-3)[GlcNAc(b1-4)][Gal(b1-4)GlcNAc(b1-2)Man(a1-6)]Man(b1-4)GlcNAc(b1-4)GlcNAc
# Outline: as §1
# [35] = molecular target: Gal(b1-4)GlcNAc(b1-2)[Gal(b1-4)GlcNAc(b1-4)]Man(a1-3)[GlcNAc(b1-4)][Gal(b1-4)GlcNAc(b1-2)[Gal(b1-4)GlcNAc(b1-6)]Man(a1-6)]Man(b1-4)GlcNAc(b1-4)GlcNAc
# Outline: as §1
# [36] = molecular target: Gal(b1-4)GlcNAc(b1-2)[Gal(b1-4)GlcNAc(b1-6)]Man(a1-6)[Gal(b1-4)GlcNAc(b1-2)Man(a1-3)]Man(b1-4)GlcNAc(b1-4)GlcNAc
# Outline: as §1
# [37] = molecular target: Gal(b1-4)GlcNAc(b1-2)[Gal(b1-4)GlcNAc(b1-6)]Man(a1-6)[Gal(b1-4)GlcNAc(b1-2)Man(a1-3)]Man(b1-4)GlcNAc(b1-4)[Fuc(a1-6)]GlcNAc
# Outline: as §1
binder,measurement,setting,value
Si Bti9 1b-V5-his (Solanum lycopersicum) (protein) MQCNRGCDLALASFYVWRGSNLTLISEMFSTSIADIVSYNNRDNIPNQDSVIAGTRINIPFRCDCLNDGEVLGHAFPYRVKSGDTYDLVARNYSDLTTAQWMMKFNSYPENNIPNTVNLSVVVNCSCGNSDVSKDFGLFVTYPVRAEDNLTSVASAANVSEDIIRRYNPAAVSILDIGQGIIYIPGRDRNGNFPPLPTSTDGLSGGAKKGGRADPAFLYKVVINSKLEGKPIPNPLLGLDSTRTGHHHHHH,glycan array binding signal (z-score),[1],0.09
same,glycan array binding signal (z-score),[2],-0.36
same,glycan array binding signal (z-score),[3],-0.257
same,glycan array binding signal (z-score),[4],1.83
same,glycan array binding signal (z-score),[5],0.457
same,glycan array binding signal (z-score),[6],-0.064
same,glycan array binding signal (z-score),[7],-0.206
same,glycan array binding signal (z-score),[8],-0.342
same,glycan array binding signal (z-score),[9],-0.247
same,glycan array binding signal (z-score),[10],-0.06
same,glycan array binding signal (z-score),[11],-0.034
same,glycan array binding signal (z-score),[12],-0.33
same,glycan array binding signal (z-score),[13],-0.067
same,glycan array binding signal (z-score),[14],-0.322
same,glycan array binding signal (z-score),[15],-0.43
same,glycan array binding signal (z-score),[16],-0.288
same,glycan array binding signal (z-score),[17],0.072
same,glycan array binding signal (z-score),[18],-0.283
same,glycan array binding signal (z-score),[19],-0.297
same,glycan array binding signal (z-score),[20],0.064
same,glycan array binding signal (z-score),[21],-0.272
same,glycan array binding signal (z-score),[22],-0.298
same,glycan array binding signal (z-score),[23],0.401
same,glycan array binding signal (z-score),[24],-0.346
same,glycan array binding signal (z-score),[25],-0.389
same,glycan array binding signal (z-score),[26],-0.243
same,glycan array binding signal (z-score),[27],-0.102
same,glycan array binding signal (z-score),[28],-0.294
same,glycan array binding signal (z-score),[29],-0.183
same,glycan array binding signal (z-score),[30],-0.277
same,glycan array binding signal (z-score),[31],-0.273
same,glycan array binding signal (z-score),[32],-0.217
same,glycan array binding signal (z-score),[33],-0.237
same,glycan array binding signal (z-score),[34],-0.243
same,glycan array binding signal (z-score),[35],-0.196
same,glycan array binding signal (z-score),[36],-0.169
same,glycan array binding signal (z-score),[37],-0.189
